Out of some 190,000 compounds screened, about 270 (0.14%) were called active. The shares of active, inactive and inconclusive entries below differ from those in the screen.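 The calls were made as follows: active = GTP binding activity at least 20% away from the 100% baseline, either lowered as inhibitor or raised as activator; inconclusive = flagged as likely green fluorescent, judged across all proteins in the well; inactive = the rest.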
The compounds below were run against GTPase HRas (Homo sapiens) (UniProt P01112) (assay: HRas wt fluorescent GTP binding changes, either direction – biochemical, wildtype, bead-based flow cytometry, multiplex, primary screen (AID 759;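 also: 0% = unlabeled GTP competition control and 100% = no-compound control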)). Details: GST-Ras wt beads, Bodipy-FL-GTP binding, at 10 µM, actives lie on both sides.
Chain of UniProt P01112 (P01112 whole entry, looked up): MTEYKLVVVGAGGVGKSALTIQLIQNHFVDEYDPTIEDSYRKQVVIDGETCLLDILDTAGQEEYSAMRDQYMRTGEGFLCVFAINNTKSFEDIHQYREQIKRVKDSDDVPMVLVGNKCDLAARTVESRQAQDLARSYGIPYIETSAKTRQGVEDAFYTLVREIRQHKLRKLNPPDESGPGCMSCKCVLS

Compound | GTP binding activity
O=C(c1ccc2c(=O)n(-c3ccccc3)c(=O)[nH]c2c1)N1CCN(c2ccc(F)cc2)CC1 | inactive: 105%
CCc1ccc(NC(=O)c2cc3c(C)nc4ccccc4c3o2)cc1 | inactive: 87%
O=C1NCCCC1C(=O)Nc1ccccn1 (stereo not given) | inconclusive: 108%
Cn1nc(C(F)(F)F)c(CO)c1Sc1ccc(F)cc1 | inactive: 97%
CCCCN(CC)c1nc(N)c(C#N)c(CC#N)c1C#N | inconclusive: 91%
CS(=O)(=O)Nc1cccc(C2=NN(S(=O)(=O)c3ccccc3)C(c3cccs3)C2)c1 (stereo not given) | inconclusive: 110%
CC12CCC(C(=O)NCCCN3CCOCC3)(OC1=O)C2(C)C (stereo not given) | inactive: 104%
Cc1c(C(=O)Nc2ccccc2)cn2c(nc3ccccc32)c1C#N | inconclusive: 91%
Cc1noc(C)c1CS(=O)(=O)c1ccc([N+](=O)[O-])cc1 | inactive: 97%
O=C(NCc1ccco1)c1cccn2c(=O)c3c4c(sc3nc12)CCCC4 | inconclusive: 81%
CCC(=O)NC(C)C(c1cccs1)N1CCN(c2ccccc2)CC1 (stereo not given) | inconclusive: 102%
O=C(O)c1ccccc1Sc1ncnc2sc3c(c12)CCC3 | active: 121% [activator]
Cc1nc2ccc(NC(=O)c3ccc4ccccc4n3)cc2s1 | inconclusive: 91%
Cc1cc(C)c(S(C)(=O)=O)c(NN)n1 | inconclusive: 108%
Cc1ccc(NC(=O)NC(=O)CSc2n[nH]c(N)n2)c(C)c1 | inconclusive: 96%
CN1C(=O)c2ccc(NC(=O)CCS(=O)(=O)c3ccccc3)cc2C1=O | inactive: 95%
OCCc1ccc(-c2ccc(Cl)cc2)o1 | inconclusive: 103%
Cc1ccc2c(c1)Oc1ccc([N+](=O)[O-])cc1C(=O)N2 | inconclusive: 93%
CC(=O)NC1=NN(C(C)=O)C2(S1)C(=O)N(C(C)C)c1ccc(C)cc12 (stereo not given) | inconclusive: 106%
Cc1ccc2nc(Nc3ccccc3)c(/C=N/O)c(=O)n2c1 | inconclusive: 95%

Compound | GTP binding activity
CN(C(=O)COC(=O)c1cc(S(=O)(=O)N2CCOCC2)c(Cl)cc1Cl)C1CCS(=O)(=O)C1 (stereo not given) | inactive: 96%
O=C(CN1CCN(c2ccccc2)CC1)Nc1ccccc1Sc1ccccc1 | inactive: 102%
COc1cc(OC)cc(C(=O)Nc2ccc(S(=O)(=O)Nc3nc(C)cc(C)n3)cc2)c1 | inconclusive: 96%
CC(C)(C)SCCNC(=O)c1ccc(Cl)c([N+](=O)[O-])c1 | inconclusive: 99%
COc1ccc(CCNC(=O)c2cc(-c3ccc(Cl)c(Cl)c3)oc2C)cc1 | inactive: 93%
O=C1c2ccccc2C(=O)N1c1cccnc1 | inconclusive: 92%
Cc1ccc(/C=N/NC(=O)CNC(=O)c2ccc(S(=O)(=O)N(C)C)cc2)o1 | inactive: 101%
CC(=O)Nc1ccc(SCC(=O)N(C)C2CCS(=O)(=O)C2)cc1 (stereo not given) | inactive: 94%
O=C(Nc1nn[nH]n1)c1cc(-c2ccc(Cl)c(Cl)c2Cl)nc2ccccc12 | inconclusive: 87%
COC(=O)C(C)(C)ONC(=O)Nc1ccccc1 | inactive: 96%
CC1=Nc2nc(N3CCCCC3)c(C#N)c3c4c(nc(c23)N1)N(c1ccc(C(C)C)cc1)C(=O)C4 | inactive: 95%
O=C(Oc1c(Br)cc(C(=S)N2CCOCC2)cc1Br)c1ccc(Cl)cc1 | inactive: 80%
O=C(c1cc(Br)ccc1Cl)N1CCCC1 | inconclusive: 96%
CN(C)S(=O)(=O)c1cccc(NC(=O)c2cc3c(=O)n4ccccc4nc3s2)c1 | inactive: 89%
COc1cc2[nH]c(=O)c(C(=O)NCCCN3CCCCC3)c(O)c2cc1OC | inconclusive: 104%
COC(CNC(=O)c1cccnc1)OC | inconclusive: 93%
O=C(COc1cccc(Br)c1)N/N=C1\CCSC1 | inconclusive: 91%
C/C(N)=C(/C#N)C(=O)COC(=O)CCCNC(=O)c1ccc(Cl)cc1 | inactive: 100%
Cc1cccc(C(=O)Nc2cccc(-c3ccc4nncn4n3)c2)c1 | inconclusive: 92%
COC(=O)c1c(NC(=O)CSc2nc3nc(C)cc(C)n3n2)sc(C)c1C | inactive: 100%

Compound | GTP binding activity
COc1cc(C2CC(=O)Oc3c2c(=O)n(C)c2ccccc32)ccc1O (stereo not given) | inconclusive: 94%
CC(C)CC1NC(=O)N(CC(=O)Nc2ccc3c(c2)CCC3)C1=O (stereo not given) | inconclusive: 95%
CC(C)C(C(=O)NCC1CCCO1)N(Cc1ccco1)C(=O)CNS(=O)(=O)c1ccc(F)cc1 (stereo not given) | inconclusive: 107%
O=C(O)c1ccc(N2CCCCS2(=O)=O)cc1 | inactive: 95%
O=C(CNCc1ccc(F)cc1)Nc1ccccc1[N+](=O)[O-] | inactive: 99%
CCn1cc(Br)c(C(=O)Nc2ccc(OC)cc2)n1 | inconclusive: 100%
CCCCC(=O)NCCc1ccc(OC)cc1 | inconclusive: 106%
CC(C)(C)c1nn2cnnc2n(/N=C/c2ccc(O)cc2)c1=O | inconclusive: 105%
N=c1c2ccccc2nnn1-c1ccc(C(F)(F)F)cc1 | inactive: 93%
CCOc1cc(NC(=S)NCc2ccco2)c(OCC)cc1NC(=O)c1ccco1 | inactive: 98%
CCN1C(=O)C(CC(=O)Nc2ccc(Br)cc2)N(CCCc2ccccc2)C1=S (stereo not given) | inactive: 95%
Cc1ccc2nc(N3C(=O)C(O)=C(C(=O)c4ccco4)C3c3cccs3)sc2c1 (stereo not given) | inconclusive: 96%
CCOc1ccccc1N(CC(=O)NC1CCCCC1)S(C)(=O)=O | inconclusive: 102%
COc1ccc(Cc2nnc(NS(=O)(=O)c3ccc(Cl)cc3)s2)cc1OC | inconclusive: 93%
Cc1ccc(NC(=S)Nc2ccc3cn[nH]c3c2)cc1C | inconclusive: 97%
COc1cc(/C=C/C(=O)Nc2ccc3nc4n(c(=O)c3c2)CCCC4)cc(OC)c1OC | inconclusive: 76%
N#Cc1cccc(NC(=O)c2ccccc2C(=O)O)c1 | inconclusive: 102%
COc1cc2[nH]c(=S)nc(NCCC(C)C)c2cc1OC | active: 64%
CCC(C(=O)Nc1sc(C(N)=O)c(C)c1C(=O)OC)c1ccccc1 (stereo not given) | inconclusive: 88%
CCOc1cc(/C=C2/NC(=O)NC2=O)cc([N+](=O)[O-])c1O | inconclusive: 69%

From PubChem BioAssay AID759 (NMMLSC, 2007)
